Reference: publication PMC4336329 (PLoS ONE, 2015)
Hit rate of the full screen: of about 310,000 compounds, about 14,000 (4.5%) showed an effect of 50% or more. Effects have a minus sign here. The list shows a part of the results.

These molecules were tested against human ether-à-go-go-related gene (hERG) potassium channel (human, UniProt Q12809) (assay: primary screen, population patch clamp on CHO cells stably expressing hERG).
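Further: peak tail current of the secondary pulse compared with the same well before compound.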

Sequence of human ether-à-go-go-related gene (hERG) potassium channel (Q12809 whole entry, looked up): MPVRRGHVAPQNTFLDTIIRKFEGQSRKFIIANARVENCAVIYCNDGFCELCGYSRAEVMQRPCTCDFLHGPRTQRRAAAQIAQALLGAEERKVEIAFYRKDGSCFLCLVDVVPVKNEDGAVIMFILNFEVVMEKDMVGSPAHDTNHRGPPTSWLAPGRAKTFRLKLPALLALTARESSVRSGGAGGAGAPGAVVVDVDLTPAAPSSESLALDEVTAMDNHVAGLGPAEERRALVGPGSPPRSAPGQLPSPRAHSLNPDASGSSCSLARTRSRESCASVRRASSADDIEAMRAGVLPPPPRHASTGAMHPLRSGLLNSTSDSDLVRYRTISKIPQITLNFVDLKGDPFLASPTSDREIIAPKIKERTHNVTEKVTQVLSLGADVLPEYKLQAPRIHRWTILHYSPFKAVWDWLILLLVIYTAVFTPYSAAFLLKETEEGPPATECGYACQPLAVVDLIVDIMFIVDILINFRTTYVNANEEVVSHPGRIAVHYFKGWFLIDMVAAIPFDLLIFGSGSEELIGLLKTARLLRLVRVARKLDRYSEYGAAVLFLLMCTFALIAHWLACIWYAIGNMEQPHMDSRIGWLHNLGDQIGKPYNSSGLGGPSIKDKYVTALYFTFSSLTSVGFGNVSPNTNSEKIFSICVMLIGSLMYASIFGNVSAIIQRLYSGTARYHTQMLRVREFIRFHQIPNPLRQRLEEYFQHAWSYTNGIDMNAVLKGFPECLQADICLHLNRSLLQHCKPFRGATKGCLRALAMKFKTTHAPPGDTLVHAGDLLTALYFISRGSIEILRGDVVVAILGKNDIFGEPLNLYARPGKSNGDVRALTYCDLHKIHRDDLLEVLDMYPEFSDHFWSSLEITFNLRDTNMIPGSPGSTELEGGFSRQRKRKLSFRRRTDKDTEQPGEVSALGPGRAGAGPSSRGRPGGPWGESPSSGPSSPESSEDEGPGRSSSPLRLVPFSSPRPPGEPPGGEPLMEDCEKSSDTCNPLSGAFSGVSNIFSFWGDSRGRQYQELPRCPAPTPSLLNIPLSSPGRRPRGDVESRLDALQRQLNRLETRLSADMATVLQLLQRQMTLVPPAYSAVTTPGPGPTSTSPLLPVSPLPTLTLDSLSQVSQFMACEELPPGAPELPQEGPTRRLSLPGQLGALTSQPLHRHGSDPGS

Compared with Cc1ccc(Sc2ncccc2O)cc1, Cc1ccnc(NC(=O)c2ccc(S(=O)(=O)NCc3ccco3)cc2)c1 is higher in “hERG current change (%, negative = inhibition) at 10uM” value: 5.73% for the first, 10.4% for the second.

Compared with CCOc1ccc(N(C(C)C(=O)NN=C2CCCCCCC2)S(C)(=O)=O)cc1 (centres unmarked), NC(=O)COC(=O)/C=C/c1ccc(S(=O)(=O)N2CCCCCC2)cc1 is lower in “hERG current change (%, negative = inhibition) at 10uM” value: 7.8% for the first, 4.74% for the second.

First: COc1ccc(C(=O)Nc2ccc3c(c2)OCCO3)cc1[N+](=O)[O-]
Second: COc1cc(OC)cc(C(=O)Nc2ccc3nc4n(c(=O)c3c2)CCCC4)c1
The “hERG current change (%, negative = inhibition) at 10uM” value of the first is lower: 5.39% for the first, 11.2% for the second.

Going from CC1=C(C(=O)Nc2ccccc2)C(c2ccco2)C(C#N)=C(SCC(=O)OC(C)C)N1 (centres unmarked) to Cc1cccc(C)c1NC(=O)COC(=O)c1ccccc1O, the “hERG current change (%, negative = inhibition) at 10uM” value rises from -19.7% to 1.57%.

Compared with COC(=O)C1=C(c2ccc(OC(F)(F)F)cc2)C[C@@H]2CC[C@H]1N2C(=O)N1CCC(O)CC1, COc1ccc(OC)c(S(=O)(=O)N2CCC(NC(=O)c3ccccc3)CC2)c1 is higher in “hERG current change (%, negative = inhibition) at 10uM” value: -36.2% for the first, 25.2% for the second.

Going from CC1=C(/C=C/C(C)=C/C=C/C(C)=C/C(=O)Nc2ccc(O)cc2)C(C)(C)CCC1 to COc1cc(/C=N/NC(=O)CC2(C)OCCCO2)ccc1OCc1ccc(Cl)cc1Cl, the “hERG current change (%, negative = inhibition) at 10uM” value falls from 17.6% to -2.83%.

Compared with C=CCSC1=NNC(c2ccc(C(C)(C)C)cc2)=NN1, CC(C)(C)c1ccc(S(=O)(=O)NNC(=O)c2cc3ccccc3[nH]2)cc1 is higher in “hERG current change (%, negative = inhibition) at 10uM” value: -10.4% for the first, 13.9% for the second.

First: O=C(NCCCN1CCOCC1)c1cc(-c2cccs2)on1
Second: O=C(/C=C/c1ccc(Br)cc1)NC(=S)N1CCOCC1
The “hERG current change (%, negative = inhibition) at 10uM” value of the first is lower: -15.7% for the first, 12.9% for the second.

First: Cc1cccc(/C=N/NC(=O)c2cccc(Cl)c2)n1
Second: CCNC(=S)NNC(=O)c1cc(-c2cccc(OCC)c2)nc2ccccc12
The “hERG current change (%, negative = inhibition) at 10uM” value of the first is higher: 9.94% for the first, -8.38% for the second.

Compared with C(#Cc1ccccc1)C[N+]1(CC#Cc2ccccc2)CCCC1.[Br-], CC1(C(=O)NCCc2c[nH]c3ccccc23)C=CCN1C(=O)c1ccccc1 (centres unmarked) is higher in “hERG current change (%, negative = inhibition) at 10uM” value: -55.5% for the first, 3.91% for the second.

Compared with Cc1ccc(C(=O)Nc2ccc(S(=O)(=O)Nc3cnc4ccccc4n3)cc2)cc1, CC(=O)Nc1ccc(S(=O)(=O)NC(C)c2ccncc2)cc1 (centres unmarked) is higher in “hERG current change (%, negative = inhibition) at 10uM” value: 2.06% for the first, 13.4% for the second.

Going from CSCCC(NC(=O)c1ccco1)C(=O)Nc1cc(C)ccn1 (centres unmarked) to CC(OC(=O)CNC(=O)c1ccc2c(c1)OCO2)C(=O)NCCC1=CCCCC1 (centres unmarked), the “hERG current change (%, negative = inhibition) at 10uM” value rises from -15.5% to -2.85%.

Compared with CC(=O)C1=C(O)C(=O)N(Cc2ccccc2)C1c1cccs1 (centres unmarked), O=C(Cc1cccs1)NNC(=S)NC(=O)c1ccccc1 is higher in “hERG current change (%, negative = inhibition) at 10uM” value: 6.75% for the first, 8.53% for the second.

Compared with COc1ccc(NC(=O)CN2CCCCC2)c([N+](=O)[O-])c1, C=CCN1C(=O)c2ccc(C(=O)OCC(=O)Nc3ccccc3OC)cc2C1=O is higher in “hERG current change (%, negative = inhibition) at 10uM” value: -32.3% for the first, 14.8% for the second.

Going from Cc1cc(Br)c(NC(=O)COC(=O)CSc2nnc(-c3ccc(Cl)cc3)o2)c(Br)c1 to COc1ccc(N2CCN(C(=O)CCC(=O)NNc3nc4ccccc4c4nc(C)nn34)CC2)cc1, the “hERG current change (%, negative = inhibition) at 10uM” value falls from 1.39% to -29.1%.

Going from CCN(CC)CCCOC(=O)C1(c2ccccc2)CCCC1 to C/C(=C\c1ccccc1)CN1CCN(C(C)C)C(CCO)C1 (centres unmarked), the “hERG current change (%, negative = inhibition) at 10uM” value rises from -25.6% to -18.7%.

Compared with CN(Cc1ccccc1)C(=O)CCNS(=O)(=O)c1ccc2c(c1)oc(=O)n2C, CN(C)C(=O)c1ccccc1NC(=O)Cc1cccc2ccccc12 is higher in “hERG current change (%, negative = inhibition) at 10uM” value: -37% for the first, 17.9% for the second.

First: O=[N+]([O-])c1cc(Br)cc(/C=N/n2cnnc2)c1O
Second: CCn1cc(C2=NOC(C(=O)O)C2)c(C)n1 (centres unmarked)
The “hERG current change (%, negative = inhibition) at 10uM” value of the first is higher: 17.2% for the first, -3.4% for the second.

First: COC(=O)c1c(NC(=O)C(=O)NCC2CCCO2)sc2c1CC(C)(C)OC2 (centres unmarked)
Second: C/C(=N\Nc1ccc(C(=O)O)cc1)c1ccc(-n2ccnc2)cc1.O=S(=O)(O)O
The “hERG current change (%, negative = inhibition) at 10uM” value of the first is higher: 18.1% for the first, 14.5% for the second.

Going from Cc1ccc(C(=O)N2CCN(C(=O)c3ccccc3)C2c2ccc(N(C)C)cc2)cc1 (centres unmarked) to COc1ccc(N(CC(=O)O)S(=O)(=O)c2ccc(OC)c(OC)c2)cc1, the “hERG current change (%, negative = inhibition) at 10uM” value rises from -50.8% to -29.6%.

Going from COc1ccccc1C1N=C(c2ccccc2C)NO1 (centres unmarked) to O=C(O)c1nnn(-c2cc(C(F)(F)F)cc(C(F)(F)F)c2)c1-c1ccccc1, the “hERG current change (%, negative = inhibition) at 10uM” value rises from 4.29% to 15.5%.

Going from Cc1onc(-c2c(F)cccc2Cl)c1C(=O)N1CCN(c2ncccn2)CC1 to COc1ccc(OCC(O)CN2CC(C)OC(C)C2)cc1.Cl (centres unmarked), the “hERG current change (%, negative = inhibition) at 10uM” value rises from -11.6% to 17.5%.
